The values that follow come from the supplement of paper PMC12217912.

First the molecules themselves.
B1: TEV protease; numbered along this chain (parent)
chain: MGESLFKGPRDYNPISSSICHLTNESDGHTTSLYGIGFGPFIITNKHLFRRNNGTLVVQSLHGVFKVKDTTTLQQHLVDGRDMIIIRMPKDFPPFPQKLKFREPQREERICLVTTNFQTKSMSSMVSDTSCTFPSGDGIFWKHWIQTKDGQCGSPLVSTRDGFIVGIHSASNFTNTNNYFTSVPKNFMELLTNQEAQQWVSGWRLNADSVLWGGHKVFMVKPEEPFQPVKEATQL

The variants in this assay derive from B1. Put plainly: raw area under fraction-flipped curve 0-4 h after induction (AUC4h, not background-subtracted), DNA-recorder readout of cleavage of the substrate (dimensionless); higher = more cleavage of the substrate by the protease variant. To be noted: temperature: 34 °C; time window: 0-4 h after rhamnose induction. As for the experimental part:
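In vivo DNA recorder in E. coli TOP10(DE3) ΔrhaA at 34 °C. Each TEVp single-site mutant (parent TEVp 0) is paired with a single-site variant of the 7-mer TEVs (canonical ENLYFQ|S). The substrate sits between flexible linkers in a Bxb1-sfGFP-TEVs-SsrA fusion, so cleavage stabilises Bxb1 and speeds flipping of a recombination array, read by NGS. The value is the raw area under the fraction-flipped curve over 0-4 h after rhamnose induction (AUC4h), with ≥20 reads per time point. It is not background-subtracted; inactive controls average about 0.047.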

The other results are listed elsewhere or left out. The full chains were built here from the parent and the listed change. Inactive controls read about 0.05.
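Also: Bxb1 expression induced with 0.2% (w/v) L-rhamnose at OD600 near 0.5, cultures sampled hourly, flipped fraction per protease–substrate barcode pair counted by paired-end Illumina sequencing.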

As for MGESLFKGPRDYNPISSSICHLTNESDGHTTSLYGIGFGPFIITNKHLFRRNNGTLVVQSLHGVFKVKDTTTLQQHLVDGRDMIIIRMPKDCPPFPQKLKFREPQREERICLVTTNFQTKSMSSMVSDTSCTFPSGDGIFWKHWIQTKDGQCGSPLVSTRDGFIVGIHSASNFTNTNNYFTSVPKNFMELLTNQEAQQWVSGWRLNADSVLWGGHKVFMVKPEEPFQPVKEATQL [F92C], the “area with substrate CNLYFQS” value amounted to 0.072, the “area with substrate DNLYFQS” value amounted to 0.0903, the “area with substrate FNLYFQS” value came to 0.055 and the “area with substrate GNLYFQS” value is 0.0595. In addition, the “area with substrate HNLYFQS” value amounted to 0.0691, the “area with substrate INLYFQS” value came out at 0.0526, the “area with substrate KNLYFQS” value came out at 0.075 and the “area with substrate LNLYFQS” value came to 0.0521. Besides, the “area with substrate MNLYFQS” value came to 0.0655, the “area with substrate PNLYFQS” value was determined as 0.0566, the “area with substrate SNLYFQS” value amounted to 0.0604 and the “area with substrate TNLYFQS” value amounted to 0.0587. Further, the “area with substrate VNLYFQS” value is 0.0894, the “area with substrate WNLYFQS” value was found to be 0.0702 and the “area with substrate YNLYFQS” value came to 0.0559.

As to MGESLFKGPRDYNPISSSICHLTNESDGHTTSLYGIGFGPFIITNKHLFRRNNGTLVVQSLHGVFKVKDTTTLQQHLVDGRDMIIIRMSKDFPPFPQKLKFREPQREERICLVTTNFQTKSMSSMVSDTSCTFPSGDGIFWKHWIQTKDGQCGSPLVSTRDGFIVGIHSASNFTNTNNYFTSVPKNFMELLTNQEAQQWVSGWRLNADSVLWGGHKVFMVKPEEPFQPVKEATQL [P89S], the “area with substrate CNLYFQS” value turned out to be 0.0526, the “area with substrate DNLYFQS” value turned out to be 0.0773, the “area with substrate FNLYFQS” value amounted to 0.0544 and the “area with substrate GNLYFQS” value is 0.0562. The “area with substrate HNLYFQS” value was 0.0567, the “area with substrate KNLYFQS” value came to 0.0673, the “area with substrate MNLYFQS” value amounted to 0.0582 and the “area with substrate NNLYFQS” value amounted to 0.066. Also, the “area with substrate QNLYFQS” value was 0.0699, the “area with substrate TNLYFQS” value turned out to be 0.0649, the “area with substrate WNLYFQS” value came out at 0.0582 and the “area with substrate YNLYFQS” value is 0.052.

As to MGESLFKGPRDYNPISSSICHLTNESDGHTTSLYGIGFGPFIITNKHLFRRNNGTLVVQSLHGVFKVKDTTTLQQHLVDGRDMIIIRMNKDFPPFPQKLKFREPQREERICLVTTNFQTKSMSSMVSDTSCTFPSGDGIFWKHWIQTKDGQCGSPLVSTRDGFIVGIHSASNFTNTNNYFTSVPKNFMELLTNQEAQQWVSGWRLNADSVLWGGHKVFMVKPEEPFQPVKEATQL [P89N], the “area with substrate CNLYFQS” value turned out to be 0.0518, the “area with substrate DNLYFQS” value was 0.056, the “area with substrate GNLYFQS” value stood at 0.0553 and the “area with substrate HNLYFQS” value amounted to 0.0543. In addition, the “area with substrate INLYFQS” value stood at 0.0531, the “area with substrate KNLYFQS” value stood at 0.0611, the “area with substrate LNLYFQS” value amounted to 0.0492 and the “area with substrate MNLYFQS” value turned out to be 0.0501. Moreover, the “area with substrate NNLYFQS” value came to 0.0646, the “area with substrate PNLYFQS” value came out at 0.0777, the “area with substrate QNLYFQS” value was 0.0502 and the “area with substrate RNLYFQS” value came to 0.0736. Moreover, the “area with substrate VNLYFQS” value was found to be 0.0648 and the “area with substrate WNLYFQS” value was 0.0637.

Consider MGESLFKGPRDYNPISSSICHLTNESDGHTTSLYGIGFGPFIITNKHLFRRNNGTLVVQSLHGVFKVKDTTTLQQHLVDGRDMIIIRMPKDFPPFPQKLKFREGQREERICLVTTNFQTKSMSSMVSDTSCTFPSGDGIFWKHWIQTKDGQCGSPLVSTRDGFIVGIHSASNFTNTNNYFTSVPKNFMELLTNQEAQQWVSGWRLNADSVLWGGHKVFMVKPEEPFQPVKEATQL [P104G], for which the “area with substrate CNLYFQS” value was 0.0496, the “area with substrate DNLYFQS” value was found to be 0.0508, the “area with substrate FNLYFQS” value came out at 0.0527 and the “area with substrate GNLYFQS” value was found to be 0.0533. For the same variant, the “area with substrate HNLYFQS” value worked out at 0.0433, the “area with substrate INLYFQS” value was determined as 0.0412, the “area with substrate LNLYFQS” value turned out to be 0.0518 and the “area with substrate MNLYFQS” value amounted to 0.058. Moreover, the “area with substrate PNLYFQS” value came out at 0.0658, the “area with substrate QNLYFQS” value worked out at 0.0479, the “area with substrate SNLYFQS” value amounted to 0.0539 and the “area with substrate TNLYFQS” value stood at 0.0489. For the same variant, the “area with substrate VNLYFQS” value was 0.0453, the “area with substrate WNLYFQS” value worked out at 0.0468 and the “area with substrate YNLYFQS” value amounted to 0.0481.

Regarding MGESLFKGPRDYNPISSSICHLTNESDGHTTSLYGIGFGPFIITNKHLFRRNNGTLVVQSLHGVFKVKDTTTLQQHLVDGRDMIIIRMPKDFMPFPQKLKFREPQREERICLVTTNFQTKSMSSMVSDTSCTFPSGDGIFWKHWIQTKDGQCGSPLVSTRDGFIVGIHSASNFTNTNNYFTSVPKNFMELLTNQEAQQWVSGWRLNADSVLWGGHKVFMVKPEEPFQPVKEATQL [P93M], the “area with substrate CNLYFQS” value is 0.0671, the “area with substrate DNLYFQS” value worked out at 0.0885, the “area with substrate GNLYFQS” value turned out to be 0.0526 and the “area with substrate INLYFQS” value was 0.0514. In addition, the “area with substrate NNLYFQS” value worked out at 0.053, the “area with substrate QNLYFQS” value is 0.0625, the “area with substrate SNLYFQS” value is 0.076 and the “area with substrate TNLYFQS” value is 0.0642. In addition, the “area with substrate VNLYFQS” value stood at 0.0815, the “area with substrate WNLYFQS” value was 0.056 and the “area with substrate YNLYFQS” value was found to be 0.0515.

In the case of MGESLFKGPRDYNPISSSICHLTNESDGHTTSLYGIGFGPFIITNKHLFRRNNGTLVVQSLHGVFKVKDTTTLQQHLVDGRDMIIIRMPKDFPPFPQKLKFREPQREEGICLVTTNFQTKSMSSMVSDTSCTFPSGDGIFWKHWIQTKDGQCGSPLVSTRDGFIVGIHSASNFTNTNNYFTSVPKNFMELLTNQEAQQWVSGWRLNADSVLWGGHKVFMVKPEEPFQPVKEATQL [R109G], the “area with substrate CNLYFQS” value stood at 0.0474, the “area with substrate DNLYFQS” value was found to be 0.0746, the “area with substrate FNLYFQS” value came to 0.0626 and the “area with substrate GNLYFQS” value was found to be 0.0684. Moreover, the “area with substrate INLYFQS” value amounted to 0.0722, the “area with substrate LNLYFQS” value was determined as 0.0585, the “area with substrate MNLYFQS” value was 0.0593 and the “area with substrate NNLYFQS” value was determined as 0.0631. Moreover, the “area with substrate PNLYFQS” value stood at 0.0718, the “area with substrate SNLYFQS” value was determined as 0.0656, the “area with substrate TNLYFQS” value was found to be 0.0537 and the “area with substrate WNLYFQS” value was 0.0481.

As for MGESLFKGPRDYNPISSSICHLTNESDGHTTSLYGIGFGPFIITNKHLFRRNNGTLVVQSLHGVFKVKDTTTLQQHLVDGRDMIIIRMPKDFPPFPQKLKFREPRREERICLVTTNFQTKSMSSMVSDTSCTFPSGDGIFWKHWIQTKDGQCGSPLVSTRDGFIVGIHSASNFTNTNNYFTSVPKNFMELLTNQEAQQWVSGWRLNADSVLWGGHKVFMVKPEEPFQPVKEATQL [Q105R], the “area with substrate CNLYFQS” value was determined as 0.0793, the “area with substrate DNLYFQS” value turned out to be 0.0768, the “area with substrate FNLYFQS” value is 0.0662 and the “area with substrate GNLYFQS” value was determined as 0.0719. The “area with substrate HNLYFQS” value came out at 0.0746, the “area with substrate INLYFQS” value was found to be 0.0729, the “area with substrate KNLYFQS” value worked out at 0.0515 and the “area with substrate LNLYFQS” value turned out to be 0.0561. Besides, the “area with substrate PNLYFQS” value amounted to 0.071, the “area with substrate SNLYFQS” value is 0.0713, the “area with substrate VNLYFQS” value turned out to be 0.0704 and the “area with substrate WNLYFQS” value was determined as 0.0603. The “area with substrate YNLYFQS” value was 0.0623.

In the case of MGESLFKGPRDYNPISSSICHLTNESDGHTTSLYGIGFGPFIITNKHLFRRNNGTLVVQSLHGVFKVKDTTTLQQHLVDGRDMIIIRMPKDFPPFPQKLKFREPDREERICLVTTNFQTKSMSSMVSDTSCTFPSGDGIFWKHWIQTKDGQCGSPLVSTRDGFIVGIHSASNFTNTNNYFTSVPKNFMELLTNQEAQQWVSGWRLNADSVLWGGHKVFMVKPEEPFQPVKEATQL [Q105D], the “area with substrate CNLYFQS” value stood at 0.0647, the “area with substrate DNLYFQS” value came to 0.0852, the “area with substrate FNLYFQS” value was 0.0646 and the “area with substrate GNLYFQS” value came out at 0.0568. Also, the “area with substrate HNLYFQS” value was 0.0711, the “area with substrate KNLYFQS” value was determined as 0.0748, the “area with substrate LNLYFQS” value came to 0.0522 and the “area with substrate MNLYFQS” value stood at 0.073. The “area with substrate NNLYFQS” value was found to be 0.0773, the “area with substrate PNLYFQS” value worked out at 0.0805, the “area with substrate SNLYFQS” value is 0.0996 and the “area with substrate TNLYFQS” value was found to be 0.0723. Besides, the “area with substrate VNLYFQS” value turned out to be 0.0686, the “area with substrate WNLYFQS” value amounted to 0.0736 and the “area with substrate YNLYFQS” value is 0.053.

As to MGESLFKGPRDYNPISSSICHLTNESDGHTTSLYGIGFGPFIITNKHLFRRNNGTLVVQSLHGVFKVKDTTTLQQHLVDGRDMIIIRMPWDFPPFPQKLKFREPQREERICLVTTNFQTKSMSSMVSDTSCTFPSGDGIFWKHWIQTKDGQCGSPLVSTRDGFIVGIHSASNFTNTNNYFTSVPKNFMELLTNQEAQQWVSGWRLNADSVLWGGHKVFMVKPEEPFQPVKEATQL [K90W], the “area with substrate CNLYFQS” value was 0.0683, the “area with substrate DNLYFQS” value was determined as 0.0696, the “area with substrate INLYFQS” value was determined as 0.0593 and the “area with substrate KNLYFQS” value was determined as 0.0583. The “area with substrate LNLYFQS” value was found to be 0.0586, the “area with substrate PNLYFQS” value amounted to 0.0619, the “area with substrate SNLYFQS” value turned out to be 0.0594 and the “area with substrate TNLYFQS” value is 0.0555. The “area with substrate VNLYFQS” value amounted to 0.0541, the “area with substrate WNLYFQS” value was determined as 0.0474 and the “area with substrate YNLYFQS” value amounted to 0.0478.
